This passage reports enrichment ratio results from a collection of fitness landscapes (doi:10.1126/science.1257360).

B1: PhoQ; a variant is named by its letters at X, in order, P23837 (parent)
chain: MKKLLRLFFPLSLRVRFLLATAAVVLVLSLAYGMVALIGYSVSFDKTTFRLLRGESNLFYTLAKWENNKLHVELPENIDKQSPTMTLIYDENGQLLWAQRDVPWLMKMIQPDWLKSNGFHEIEADVNDTSLLLSGDHSIQQQLQEVREDDDDAEMTHSVAVNVYPATSRMPKLTIVVVDTIPVELKSSYMVWSWFIYVLSANLLLVIPLLWVAAWWSLRPIEALAKEVRELEEHNRELLNPATTRELTSLVRNLNRLLKSERERYDKYRTTLTDLTHSLKTPLXXLQXXLRSLRSEKMSVSDAEPVMLEQISRISQQIGYYLHRASMRGGTLLSRELHPVAPLLDNLTSALNKVYQRKGVNISLDISPEISFVGEQNDFVEVMGNVLDNACKYCLEFVEISARQTDEHLYIVVEDDGPGIPLSKREVIFDRGQRVDTLRPGQGVGLAVAREITEQYEGKIVAGESMLGGARMEVIFGRQHSAPKDE

The other results are listed elsewhere or left out.

In this assay the parent is B1. The assay is described as follows: enrichment ratio after two sorts for PhoP signalling (ratio (wild type AVST 3.29)); higher = more functional. The settings on record: with PhoP (E. coli).
For the variant NGPI, the enrichment ratio is not above 0.25.

For the variant EEDA, the enrichment ratio was not above 0.25. On to TWWC, for which the enrichment ratio was not above 0.25. The figure for LFDY is not above 0.25; for DGPW it is not above 0.25. SFYA: the enrichment ratio was not above 0.25. With KSCW, the enrichment ratio was not above 0.25.

As to YRKV, the enrichment ratio is not above 0.25. For NWWW, the enrichment ratio was not above 0.25. As for NSNC, the enrichment ratio is not above 0.25.

For the variant IPPH, the enrichment ratio is not above 0.25. Take TKSA: the enrichment ratio stood at 0.579.

Consider RYFW, for which the enrichment ratio was not above 0.25. VHFH: the enrichment ratio is not above 0.25. Take YIGK: the enrichment ratio is not above 0.25. In the case of QWAW, the enrichment ratio was not above 0.25. The figure for RKHL is not above 0.25; for TLSE it is 10.7; for SKTH it is not above 0.25.

Turning to LMHS, the enrichment ratio is not above 0.25. As for RQFW, the enrichment ratio was not above 0.25.

As for IFWW, the enrichment ratio is not above 0.25. The figure for IDFM is not above 0.25; for EHHV it is not above 0.25; for SARK it is 0.446. In the case of PGNL it was not above 0.25. The figure for KQSA is not above 0.25.

NHIG: the enrichment ratio is not above 0.25. YCTT: the enrichment ratio is not above 0.25.

As to SKRN, the enrichment ratio was not above 0.25. QNPH: the enrichment ratio was not above 0.25. With GFDY, the enrichment ratio was not above 0.25. On to FYVN, for which the enrichment ratio was not above 0.25. For IECG, the enrichment ratio is not above 0.25. In the case of MKCN, the enrichment ratio is not above 0.25.

GYIS: the enrichment ratio is not above 0.25. In the case of RMNF it was not above 0.25; in that of MVIF, not above 0.25; in that of LGKP, not above 0.25. As to SEFE, the enrichment ratio amounted to 4.76. Turning to LKGF, the enrichment ratio was not above 0.25. Take GPVS: the enrichment ratio was not above 0.25. As to TWGD, the enrichment ratio was not above 0.25. Take NHNR: the enrichment ratio is not above 0.25.

Regarding LILC, the enrichment ratio was not above 0.25.

In the case of FVKC, the enrichment ratio is not above 0.25. Take FTCP: the enrichment ratio is not above 0.25. Consider TGRM, for which the enrichment ratio is not above 0.25. As to NRST, the enrichment ratio is not above 0.25. Consider EHAK, for which the enrichment ratio was not above 0.25.

Take CHSG: the enrichment ratio is not above 0.25. Regarding IMHL, the enrichment ratio was not above 0.25. As for MCYP, the enrichment ratio was not above 0.25. As to FNAM, the enrichment ratio was not above 0.25. Consider ALRP, for which the enrichment ratio was not above 0.25. As for TCYR, the enrichment ratio was not above 0.25. In the case of VAWY, the enrichment ratio is not above 0.25. Turning to HLAY, the enrichment ratio is not above 0.25. In the case of GRCV it was not above 0.25; in that of TQKA, not above 0.25.

As to MQEL, the enrichment ratio was not above 0.25.

As for GKQM, the enrichment ratio is not above 0.25. In the case of SHNQ it was 0.892; in that of LNYH, not above 0.25; in that of FDQE, not above 0.25. For the variant VQDL, the enrichment ratio was not above 0.25.

With GNDA, the enrichment ratio is not above 0.25. For VAYS, the enrichment ratio is not above 0.25. For WVWR, the enrichment ratio was not above 0.25. In the case of ILDI it was not above 0.25; in that of GWFW, not above 0.25; in that of WCLV, not above 0.25. The figure for MVAI is 5.52. As for YLML, the enrichment ratio is not above 0.25.

Regarding MHMV, the enrichment ratio is not above 0.25. For the variant IQVG, the enrichment ratio is not above 0.25. As to NRMR, the enrichment ratio was not above 0.25. In the case of REAT it was not above 0.25; in that of TNRH, not above 0.25; in that of QHIE, not above 0.25. Regarding LNLE, the enrichment ratio is not above 0.25. With YKER, the enrichment ratio is not above 0.25. As to RTHA, the enrichment ratio is not above 0.25. For the variant YSNP, the enrichment ratio is not above 0.25.

In the case of PNFD, the enrichment ratio is not above 0.25. For CAVP, the enrichment ratio was not above 0.25. WEGD: the enrichment ratio was not above 0.25. As for EIYP, the enrichment ratio was not above 0.25. On to NRGC, for which the enrichment ratio is not above 0.25.

NMSV: the enrichment ratio was not above 0.25. In the case of SNWK it was not above 0.25. For NDLM, the enrichment ratio was not above 0.25.

In the case of EHRR, the enrichment ratio was not above 0.25. As for GYHP, the enrichment ratio is not above 0.25. As to NWFN, the enrichment ratio was not above 0.25.

As for YRYW, the enrichment ratio is not above 0.25.

Regarding HWMF, the enrichment ratio was not above 0.25. Turning to HRCS, the enrichment ratio is not above 0.25.

HAIS: the enrichment ratio is not above 0.25. On to RSHL, for which the enrichment ratio came to 0.36. On to PIVG, for which the enrichment ratio was not above 0.25. As for KKIK, the enrichment ratio is not above 0.25. In the case of WSPK it was not above 0.25; in that of RKHC, not above 0.25; in that of AKDD, not above 0.25. MPVL: the enrichment ratio is not above 0.25. Take IMLA: the enrichment ratio was not above 0.25. With VVRA, the enrichment ratio is not above 0.25.

Regarding WMIY, the enrichment ratio was not above 0.25. On to LQEC, for which the enrichment ratio is not above 0.25.

On to ILCT, for which the enrichment ratio was not above 0.25.

Regarding VACD, the enrichment ratio is not above 0.25. Take LMHT: the enrichment ratio was not above 0.25. For the variant AKPH, the enrichment ratio is not above 0.25. Consider NFRS, for which the enrichment ratio was not above 0.25.

HPTP: the enrichment ratio was not above 0.25. Turning to TGTK, the enrichment ratio is not above 0.25.

YHES: the enrichment ratio is not above 0.25. For the variant FFWW, the enrichment ratio is not above 0.25. Take KRPR: the enrichment ratio is not above 0.25. The figure for MLGH is not above 0.25; for RWPD it is not above 0.25. With GAVR, the enrichment ratio was not above 0.25. For IEIK, the enrichment ratio was not above 0.25. For QHKQ, the enrichment ratio is not above 0.25.

As to FGIF, the enrichment ratio was not above 0.25. As for EFTV, the enrichment ratio is not above 0.25.

As to ISPT, the enrichment ratio was not above 0.25. In the case of RYVS, the enrichment ratio was not above 0.25. GMTY: the enrichment ratio was not above 0.25. In the case of QLLC, the enrichment ratio is not above 0.25. On to AFCC, for which the enrichment ratio was not above 0.25. For HAMF, the enrichment ratio was not above 0.25. Consider SCSS, for which the enrichment ratio stood at 10.1.

Take RRRH: the enrichment ratio was not above 0.25. The figure for NRHQ is not above 0.25; for FWFC it is not above 0.25. In the case of VLHG it was not above 0.25; in that of WSNN, not above 0.25; in that of QSMR, not above 0.25. On to RYWW, for which the enrichment ratio was not above 0.25. In the case of DAWS, the enrichment ratio is not above 0.25. The figure for VTKN is not above 0.25. In the case of HMDG it was not above 0.25; in that of THSN, 2.57; in that of RIQY, not above 0.25. PSGG: the enrichment ratio is not above 0.25. Regarding SAGI, the enrichment ratio worked out at 2.88.

For SCIH, the enrichment ratio worked out at 1.7.

On to IGCI, for which the enrichment ratio was not above 0.25. In the case of MLFY it was not above 0.25; in that of WVHW, not above 0.25; in that of VVGI, not above 0.25.

For the variant QAVT, the enrichment ratio was not above 0.25. The figure for RGMK is not above 0.25; for FCTH it is not above 0.25. The figure for GYQL is not above 0.25; for VGMG it is not above 0.25; for FVLF it is 4.75. Take IWGN: the enrichment ratio is not above 0.25. In the case of MWRS it was not above 0.25; in that of AKDQ, not above 0.25. In the case of NNFW it was not above 0.25; in that of RIAY, not above 0.25; in that of GQVL, 2.17. The figure for VINV is not above 0.25; for DWFF it is not above 0.25. Take GYFQ: the enrichment ratio was not above 0.25.

For LYSN, the enrichment ratio was not above 0.25.

Consider AWCC, for which the enrichment ratio is not above 0.25. Turning to IAKH, the enrichment ratio was not above 0.25. For FIQP, the enrichment ratio was not above 0.25. In the case of QGWW it was not above 0.25. Take TKTI: the enrichment ratio is 0.391.

Turning to KMIQ, the enrichment ratio is not above 0.25. Turning to GANN, the enrichment ratio is not above 0.25. As for KCPS, the enrichment ratio came to 0.491.

Take TIID: the enrichment ratio was not above 0.25. Consider DCET, for which the enrichment ratio was not above 0.25. On to GNIN, for which the enrichment ratio is not above 0.25. As for SPMA, the enrichment ratio is not above 0.25.

On to LHFF, for which the enrichment ratio is not above 0.25. For the variant DSYT, the enrichment ratio is not above 0.25. For YRHE, the enrichment ratio is not above 0.25. In the case of MSTI, the enrichment ratio was 18.2. Turning to ICHG, the enrichment ratio was not above 0.25. Take WEPE: the enrichment ratio is not above 0.25. In the case of DPRI it was not above 0.25. For the variant MTKW, the enrichment ratio is not above 0.25. The figure for AWDK is not above 0.25.

In the case of RYVW, the enrichment ratio is not above 0.25. MHRP: the enrichment ratio was not above 0.25. DGSV: the enrichment ratio was not above 0.25.

Consider KIRV, for which the enrichment ratio was not above 0.25.

GHKR: the enrichment ratio is not above 0.25.
